# Assay results: a collection of fitness landscapes (doi:10.1016/j.celrep.2020.107928)
# In all, about 81,000 sequences were measured (“one-hybrid fitness for binding parS DNA”: median about -0.17, highest 2% from about 0.51 on). This is one part of the list.
# B1: Caulobacter ParB omega fusion; a variant is named by its letters at X, in order, B8GW30 (parent)
# chain: MESVVVGEPGMSEGRRGLGRGLSALLGEVDAAPAQAPGEQLGGSREAPIEILQRNPDQPRRTFREEDLEDLSNSIREKGVLQPILVRPSPDTAGEYQIVAGERAWRAAQRAGLKTVPIMVRELDDLAVLEIGIIENVQRADLNVLEEALSYKVLMEKFERTQENIAQTIGKSXSHVANXMRLLXLPDEVQSYLVSGELTAXHARAIAAAADPVALAKQIIEGGLSVRETEALARKAPNLSAGKSKGGRPPRVKDTDTQALESDLSSVLGLDVSIDHRGSTGTLTITYATLEQLDDLCNRLTRGI
# Variants of: B1
# Assay: one-hybrid fitness for binding parS DNA (scaled: cognate 1, non-cognate 0); higher = stronger binding
# Conditions: with parS DNA site
# Outline: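 Fitness is the rescaled log change in variant-to-wild-type read ratio, measured by Illumina sequencing of plasmids before and after bacterial one-hybrid selection. The scale puts cognate at 1 and non-cognate at 0. Selection of Caulobacter ParB libraries, four specificity codons randomised, took place in E. coli USO with a HIS3 reporter, site 19 bp from the promoter, over 48 hours at 37°C on M9-minus-histidine with 0.1 mM IPTG and 5 mM 3-AT.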
row,Variant,one-hybrid fitness for binding parS DNA
1,RWHF,≤ 0.2
2,RYTP,≤ 0.2
3,HRKL,≤ 0.2
4,CLTC,≤ 0.2
5,VYIT,≤ 0.2
6,CLRY,≤ 0.2
7,QRAI,≤ 0.2
8,GPMR,≤ 0.2
9,SADY,≤ 0.2
10,PQMC,≤ 0.2
11,PIMY,≤ 0.2
12,LWWF,≤ 0.2
13,NNID,≤ 0.2
14,IWLR,≤ 0.2
15,MLIS,≤ 0.2
16,QHRM,≤ 0.2
17,STWV,≤ 0.2
18,KGCA,≤ 0.2
19,LAVV,≤ 0.2
20,RISR,≤ 0.2
21,HVII,0.244
22,MFRC,≤ 0.2
23,QWEC,≤ 0.2
24,EPRT,≤ 0.2

row,Variant,one-hybrid fitness for binding parS DNA
1,FECG,≤ 0.2
2,TANG,≤ 0.2
3,LCTC,≤ 0.2
4,GWTR,≤ 0.2
5,RWPM,≤ 0.2
6,QGAW,≤ 0.2
7,HRGN,≤ 0.2
8,PNIR,≤ 0.2
9,VPHS,≤ 0.2
10,MPRM,≤ 0.2
11,MPTT,≤ 0.2
12,KSGL,≤ 0.2
13,PPAS,≤ 0.2
14,NFCC,≤ 0.2
15,YLCE,≤ 0.2
16,PSCG,≤ 0.2
17,LITR,≤ 0.2
18,RKSA,0.717
19,CHVG,≤ 0.2
20,LDLK,≤ 0.2
21,MNSL,≤ 0.2
22,PPML,≤ 0.2
23,EVLS,≤ 0.2
24,NCNL,≤ 0.2

row,Variant,one-hybrid fitness for binding parS DNA
1,YFDP,≤ 0.2
2,WSMN,≤ 0.2
3,VTME,≤ 0.2
4,DMKR,≤ 0.2
5,SKMS,≤ 0.2
6,EAPH,≤ 0.2
7,CPLY,≤ 0.2
8,SWVN,≤ 0.2
9,IFAW,≤ 0.2
10,YCMS,≤ 0.2
11,KLCS,≤ 0.2
12,WTIS,≤ 0.2
13,PADR,≤ 0.2
14,RYRG,0.92
15,MKCG,≤ 0.2
16,KIFG,≤ 0.2
17,NIHV,≤ 0.2
18,NKDV,≤ 0.2
19,GNTV,≤ 0.2
20,WLLR,≤ 0.2
21,VTSQ,≤ 0.2
22,ITTA,≤ 0.2
23,TELD,≤ 0.2
24,QNSN,≤ 0.2

row,Variant,one-hybrid fitness for binding parS DNA
1,YPCS,≤ 0.2
2,SYQF,≤ 0.2
3,TQCG,≤ 0.2
4,WCRS,≤ 0.2
5,AAAE,≤ 0.2
6,IARV,≤ 0.2
7,SSNL,≤ 0.2
8,QTQH,≤ 0.2
9,DDGG,≤ 0.2
10,RPKN,≤ 0.2
11,MFKS,≤ 0.2
12,HRFQ,≤ 0.2
13,AGKN,≤ 0.2
14,ILHY,≤ 0.2
15,TGAS,≤ 0.2
16,FIFL,≤ 0.2
17,QDCL,≤ 0.2
18,RVWP,≤ 0.2
19,PGAT,≤ 0.2
20,HLDR,≤ 0.2
21,DQRY,≤ 0.2
22,IKSL,≤ 0.2
23,HGLT,≤ 0.2
24,DTIG,≤ 0.2

row,Variant,one-hybrid fitness for binding parS DNA
1,HTSE,≤ 0.2
2,AWKG,≤ 0.2
3,GGMS,≤ 0.2
4,AQGA,≤ 0.2
5,AQGR,≤ 0.2
6,QFNE,≤ 0.2
7,VICR,≤ 0.2
8,DNHG,≤ 0.2
9,TIDY,≤ 0.2
10,IWTT,≤ 0.2
11,REMC,≤ 0.2
12,WPPN,≤ 0.2
13,FPNS,≤ 0.2
14,FGGN,≤ 0.2
15,GTQS,≤ 0.2
16,YHAR,≤ 0.2
17,HVYG,≤ 0.2
18,LVAT,≤ 0.2
19,KCST,≤ 0.2
20,MCSE,≤ 0.2
21,YRDR,≤ 0.2
22,LMTK,≤ 0.2
23,TLKT,≤ 0.2
24,ILHF,≤ 0.2

row,Variant,one-hybrid fitness for binding parS DNA
1,PDPP,≤ 0.2
2,METE,≤ 0.2
3,KKLR,≤ 0.2
4,MTDT,≤ 0.2
5,MITD,≤ 0.2
6,PTYY,≤ 0.2
7,ESHY,≤ 0.2
8,TARY,≤ 0.2
9,PHST,≤ 0.2
10,QFRY,≤ 0.2
11,KWKI,≤ 0.2
12,VQNC,≤ 0.2
13,HTIG,≤ 0.2
14,NSTT,≤ 0.2
15,DPWI,≤ 0.2
16,GYLS,≤ 0.2
17,MTHC,≤ 0.2
18,LLAA,≤ 0.2
19,HPAV,≤ 0.2
20,SNCE,≤ 0.2
21,IRKY,≤ 0.2
22,VVMT,≤ 0.2
23,NPYR,≤ 0.2
24,VNDC,≤ 0.2

row,Variant,one-hybrid fitness for binding parS DNA
1,CPTW,≤ 0.2
2,NRMF,≤ 0.2
3,TERF,≤ 0.2
4,SLTG,≤ 0.2
5,AKTY,≤ 0.2
6,QGLT,≤ 0.2
7,TIIL,≤ 0.2
8,HQHH,≤ 0.2
9,VVYS,≤ 0.2
10,QRSD,≤ 0.2
11,DRYS,≤ 0.2
12,ERWG,≤ 0.2
13,CKQT,≤ 0.2
14,FCRR,≤ 0.2
15,GVIR,≤ 0.2
16,VEGN,≤ 0.2
17,WYYG,≤ 0.2
18,YYTR,≤ 0.2
19,RLQR,≤ 0.2
20,SSHF,≤ 0.2
21,MCNT,≤ 0.2
22,CQAC,≤ 0.2
23,ALCS,≤ 0.2
24,QDLH,≤ 0.2

row,Variant,one-hybrid fitness for binding parS DNA
1,PTDC,≤ 0.2
2,GECR,≤ 0.2
3,LSQN,≤ 0.2
4,FKST,≤ 0.2
5,LKTM,≤ 0.2
6,LGDV,≤ 0.2
7,YYQP,≤ 0.2
8,HHTK,≤ 0.2
9,HSQT,≤ 0.2
10,MIGG,≤ 0.2
11,VLAS,≤ 0.2
12,RIIF,≤ 0.2
13,SANW,≤ 0.2
14,WFLC,≤ 0.2
15,TCSS,≤ 0.2
16,IQKC,≤ 0.2
17,RYTD,≤ 0.2
18,LMKP,≤ 0.2
19,SAMC,≤ 0.2
20,TVLC,≤ 0.2
21,GKRM,≤ 0.2
22,KSWR,≤ 0.2
23,ILVV,≤ 0.2
24,MVAF,≤ 0.2

row,Variant,one-hybrid fitness for binding parS DNA
1,ATRR,≤ 0.2
2,ELLF,≤ 0.2
3,RLET,0.783
4,ILQC,≤ 0.2
5,KQTR,≤ 0.2
6,TDEE,≤ 0.2
7,NRHG,≤ 0.2
8,LVKP,≤ 0.2
9,PTQS,≤ 0.2
10,HPGR,≤ 0.2
11,DTRH,≤ 0.2
12,LAIC,≤ 0.2
13,LKMS,≤ 0.2
14,TRSR,≤ 0.2
15,MVEY,≤ 0.2
16,TNAS,≤ 0.2
17,HTKK,≤ 0.2
18,MFNK,≤ 0.2
19,SSQQ,≤ 0.2
20,DVQY,≤ 0.2
21,SESP,≤ 0.2
22,INSM,≤ 0.2
23,RNFD,≤ 0.2
24,ALQP,≤ 0.2

row,Variant,one-hybrid fitness for binding parS DNA
1,EWTE,≤ 0.2
2,VPKC,≤ 0.2
3,TVEG,≤ 0.2
4,CRMI,≤ 0.2
5,DECC,≤ 0.2
6,QRGP,≤ 0.2
7,DRNR,≤ 0.2
8,SARH,≤ 0.2
9,QTHH,≤ 0.2
10,SADR,≤ 0.2
11,AYGH,≤ 0.2
12,SRLF,≤ 0.2
13,RKVP,≤ 0.2
14,ATTY,≤ 0.2
15,QMHS,≤ 0.2
16,DLGC,≤ 0.2
17,ELRN,≤ 0.2
18,QNKT,≤ 0.2
19,LAGD,≤ 0.2
20,MEYC,≤ 0.2
21,GNQF,≤ 0.2
22,VIMA,0.254
23,RCPV,≤ 0.2
24,AFLM,≤ 0.2

row,Variant,one-hybrid fitness for binding parS DNA
1,KQRC,≤ 0.2
2,TFDD,≤ 0.2
3,ISYP,≤ 0.2
4,QPQY,≤ 0.2
5,SGTL,≤ 0.2
6,EREI,≤ 0.2
7,IYTM,≤ 0.2
8,LSTI,≤ 0.2
9,KRAG,≤ 0.2
10,AMTK,≤ 0.2
11,TMNK,≤ 0.2
12,AHRT,≤ 0.2
13,PNNM,≤ 0.2
14,LDPC,≤ 0.2
15,FTCR,≤ 0.2
16,VEVR,≤ 0.2
17,PTDW,≤ 0.2
18,PKDD,≤ 0.2
19,PVPY,≤ 0.2
20,RIFA,0.529
21,RTRN,0.396
22,LNKF,≤ 0.2
23,EDTC,≤ 0.2
24,WNRV,≤ 0.2

row,Variant,one-hybrid fitness for binding parS DNA
1,KGVR,≤ 0.2
2,TPST,≤ 0.2
3,RHGT,0.832
4,QEVL,≤ 0.2
5,EPKV,≤ 0.2
6,VDQD,≤ 0.2
7,PVYN,≤ 0.2
8,DENR,≤ 0.2
9,LCKE,≤ 0.2
10,DGMY,≤ 0.2
11,HMMR,≤ 0.2
12,QLNM,≤ 0.2
13,LVYR,≤ 0.2
14,LIGE,≤ 0.2
15,FANS,≤ 0.2
16,TTPE,≤ 0.2
17,KHMR,≤ 0.2
18,AFGS,≤ 0.2
19,RCFA,0.589
20,VTHY,≤ 0.2
21,WHLI,≤ 0.2
22,RWCS,0.756
23,GYNR,≤ 0.2
24,YFNF,≤ 0.2

row,Variant,one-hybrid fitness for binding parS DNA
1,TEET,≤ 0.2
2,LGSM,≤ 0.2
3,DFSC,≤ 0.2
4,TYDY,≤ 0.2
5,PRNF,≤ 0.2
6,HIRA,≤ 0.2
7,WSRV,≤ 0.2
8,PLIG,≤ 0.2
9,RFIL,≤ 0.2
10,SSNN,≤ 0.2
11,LYWC,≤ 0.2
12,CQYV,≤ 0.2
13,PGFT,≤ 0.2
14,IMAT,≤ 0.2
15,RPAC,≤ 0.2
16,TNTG,≤ 0.2
17,LPSL,≤ 0.2
18,DLKC,≤ 0.2
